Measured values: patent US20230322822A1, “ARYL PHOSPHOROUS OXIDE COMPOUNDS AND USE THEREOF” (Chengdu Di'ao Jiuhong Pharmaceutical Factory, priority 2020, published 2023)

Columns and labels:
Format in all cases: biochemical
Conditions in all cases: kinase
[1] = target: EGFR-T790M/Del19 (Homo sapiens, UniProt P00533, T790M, form not given); assay: Enzymatic activity test (ADP-Glo) EGFR-T790M/Del19
Experimental: (§1) • 1. […] Test information:
(§2) To assess the effect of compounds on the activity of wild-type and mutant EGFR kinases, kinase activity was tested by measuring ATP consumption in an enzymatic reaction using an ADP-Glo (Promega Corporation) kit. Samples to be tested were dissolved in DMSO and diluted in a gradient. In a microplate, an EGFR kinase, a reaction buffer (containing Tris-HCl with a pH of 7.5, MgCl2, DTT and BSA), a kinase substrate Poly(Glu4, Tyr1) and a sample (a total volume of 20 μL per well) were added per well, while a blank control (no enzyme and sample) and a negative control (no sample) were set up; incubated for 15 minutes at 23° C.; added with 5 μL of ATP, and reacted at 23° C. for 60 minutes; added with ADP-Glo Reagent, and continuously reacted for 40 minutes at room temperature to inactivate the redundant ATP; then, added with a Kinase Detection Reagent, and reacted at room temperature for 30 minutes, then the chemiluminescence intensity L of each well was measured. […] IC50 values were calculated according to the above calculation using 4Parameter Logistic Model in XLfit software. • 3.

[2] = target: EGFR-Del19 (Homo sapiens, UniProt P00533); assay: Enzymatic activity test (ADP-Glo) EGFR-Del19
Sequence of EGFR-Del19 (P00533 25-1210 limits assumed): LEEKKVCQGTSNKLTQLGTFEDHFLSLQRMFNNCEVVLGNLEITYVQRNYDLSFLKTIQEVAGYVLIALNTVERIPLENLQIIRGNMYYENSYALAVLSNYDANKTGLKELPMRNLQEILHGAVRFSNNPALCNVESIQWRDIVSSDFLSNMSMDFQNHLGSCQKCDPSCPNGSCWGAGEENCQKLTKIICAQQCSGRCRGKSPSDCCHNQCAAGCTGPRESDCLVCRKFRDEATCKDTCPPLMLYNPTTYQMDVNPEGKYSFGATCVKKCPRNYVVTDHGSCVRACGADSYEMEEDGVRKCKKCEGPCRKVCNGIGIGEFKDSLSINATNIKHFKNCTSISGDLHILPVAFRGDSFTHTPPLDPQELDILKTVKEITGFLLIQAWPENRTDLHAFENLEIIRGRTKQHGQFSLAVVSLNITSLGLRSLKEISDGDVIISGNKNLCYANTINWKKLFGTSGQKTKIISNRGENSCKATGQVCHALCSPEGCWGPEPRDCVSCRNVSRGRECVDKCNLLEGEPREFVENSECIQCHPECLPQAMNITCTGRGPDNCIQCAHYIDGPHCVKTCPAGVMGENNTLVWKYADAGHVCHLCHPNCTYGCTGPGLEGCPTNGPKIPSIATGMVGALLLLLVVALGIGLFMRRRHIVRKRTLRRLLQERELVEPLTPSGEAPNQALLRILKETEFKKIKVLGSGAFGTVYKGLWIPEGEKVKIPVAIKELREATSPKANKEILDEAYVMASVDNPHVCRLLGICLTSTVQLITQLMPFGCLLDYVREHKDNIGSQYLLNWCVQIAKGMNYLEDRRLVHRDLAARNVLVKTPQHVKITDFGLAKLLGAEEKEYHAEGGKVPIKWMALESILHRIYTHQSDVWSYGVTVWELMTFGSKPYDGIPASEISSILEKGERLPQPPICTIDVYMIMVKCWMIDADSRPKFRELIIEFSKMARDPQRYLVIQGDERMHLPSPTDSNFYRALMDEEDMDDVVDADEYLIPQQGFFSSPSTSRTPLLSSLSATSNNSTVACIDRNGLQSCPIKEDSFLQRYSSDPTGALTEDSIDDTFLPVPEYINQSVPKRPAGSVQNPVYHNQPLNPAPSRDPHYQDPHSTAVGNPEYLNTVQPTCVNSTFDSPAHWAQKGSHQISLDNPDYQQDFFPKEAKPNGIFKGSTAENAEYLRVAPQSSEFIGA
Experimental: as §1, §2

[3] = target: EGFR-T790M/L858R (Homo sapiens (Human), UniProt P00533, L858R/T790M); assay: Enzymatic activity test (ADP-Glo) EGFR-T790M/L858R
Sequence of EGFR-T790M/L858R (P00533 25-1210 T790M/L858R): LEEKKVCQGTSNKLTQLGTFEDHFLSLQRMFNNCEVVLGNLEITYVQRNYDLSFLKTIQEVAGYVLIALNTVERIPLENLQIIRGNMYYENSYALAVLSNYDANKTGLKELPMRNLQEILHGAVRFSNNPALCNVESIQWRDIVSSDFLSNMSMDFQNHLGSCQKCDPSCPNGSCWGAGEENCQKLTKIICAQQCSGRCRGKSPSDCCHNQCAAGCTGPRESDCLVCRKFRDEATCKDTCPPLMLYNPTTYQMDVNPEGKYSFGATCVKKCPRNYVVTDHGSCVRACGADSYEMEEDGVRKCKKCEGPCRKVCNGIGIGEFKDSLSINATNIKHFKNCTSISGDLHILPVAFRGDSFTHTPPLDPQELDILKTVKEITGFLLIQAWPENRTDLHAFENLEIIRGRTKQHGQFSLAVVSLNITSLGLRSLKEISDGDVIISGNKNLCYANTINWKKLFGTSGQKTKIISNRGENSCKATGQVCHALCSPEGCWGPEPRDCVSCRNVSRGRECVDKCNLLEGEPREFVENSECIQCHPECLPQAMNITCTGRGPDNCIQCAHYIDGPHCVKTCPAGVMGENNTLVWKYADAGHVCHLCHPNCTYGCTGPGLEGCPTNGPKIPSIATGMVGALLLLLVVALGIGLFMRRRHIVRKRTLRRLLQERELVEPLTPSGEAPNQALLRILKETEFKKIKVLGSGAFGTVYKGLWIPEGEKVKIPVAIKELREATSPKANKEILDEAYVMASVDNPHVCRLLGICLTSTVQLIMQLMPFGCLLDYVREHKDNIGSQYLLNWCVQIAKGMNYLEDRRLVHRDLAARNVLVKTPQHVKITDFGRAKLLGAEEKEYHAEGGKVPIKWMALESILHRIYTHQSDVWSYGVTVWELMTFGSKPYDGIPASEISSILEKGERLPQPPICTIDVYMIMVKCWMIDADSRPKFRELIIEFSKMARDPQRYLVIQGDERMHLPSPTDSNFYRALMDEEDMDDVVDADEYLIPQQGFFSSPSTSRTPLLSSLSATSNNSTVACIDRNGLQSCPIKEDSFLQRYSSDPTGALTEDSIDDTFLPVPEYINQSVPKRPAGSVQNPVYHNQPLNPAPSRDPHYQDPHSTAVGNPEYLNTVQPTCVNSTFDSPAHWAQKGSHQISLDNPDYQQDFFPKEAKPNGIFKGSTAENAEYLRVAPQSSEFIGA
Experimental: as §1, §2

SMILES	pIC50 [1]	pIC50 [2]	pIC50 [3]
COc1cc(N2CCC(N3CCN(C)CC3)CC2)c(C)cc1Nc1ncc(Cl)c(Nc2ccccc2P(C)(C)=O)n1 [Control compound 2, reference compound]	< 6.60	< 6.60	–
COc1cc(N2CCC(N3CCN(C)CC3)CC2)c(C)cc1Nc1ncc(Cl)c(Nc2cccc(C)c2P(C)(C)=O)n1 [Control compound 1, reference compound]	< 6.60	–	< 6.60

pIC50: −log10 of the molar value.
